Test results taken from PubChem BioAssay AID1468 (National Center for Advancing Translational Sciences (NCATS), 2008).
Where “and” joins values, the source holds several entries; their conditions need not be identical. Identical values can stand only once. Screen size: about 280,000 compounds; about 1,100 (0.39%) were called active. The inconclusive results got no clear call from the source; some entries with a clear call stand among them for comparison. Calls follow the shape of the dose curve; as a rule, active = well fitted inhibition curve with a large enough effect; inconclusive = small, poorly fitted or top-dose-only effect, or effect the other way; inactive = flat fitted curve, though single readings scatter. A potency beside an inconclusive call is a rough fit, not a confirmed value.

Biological target: Microtubule-associated protein tau (Homo sapiens) (UniProt P10636)
Chain of UniProt P10636 (P10636 whole entry, looked up): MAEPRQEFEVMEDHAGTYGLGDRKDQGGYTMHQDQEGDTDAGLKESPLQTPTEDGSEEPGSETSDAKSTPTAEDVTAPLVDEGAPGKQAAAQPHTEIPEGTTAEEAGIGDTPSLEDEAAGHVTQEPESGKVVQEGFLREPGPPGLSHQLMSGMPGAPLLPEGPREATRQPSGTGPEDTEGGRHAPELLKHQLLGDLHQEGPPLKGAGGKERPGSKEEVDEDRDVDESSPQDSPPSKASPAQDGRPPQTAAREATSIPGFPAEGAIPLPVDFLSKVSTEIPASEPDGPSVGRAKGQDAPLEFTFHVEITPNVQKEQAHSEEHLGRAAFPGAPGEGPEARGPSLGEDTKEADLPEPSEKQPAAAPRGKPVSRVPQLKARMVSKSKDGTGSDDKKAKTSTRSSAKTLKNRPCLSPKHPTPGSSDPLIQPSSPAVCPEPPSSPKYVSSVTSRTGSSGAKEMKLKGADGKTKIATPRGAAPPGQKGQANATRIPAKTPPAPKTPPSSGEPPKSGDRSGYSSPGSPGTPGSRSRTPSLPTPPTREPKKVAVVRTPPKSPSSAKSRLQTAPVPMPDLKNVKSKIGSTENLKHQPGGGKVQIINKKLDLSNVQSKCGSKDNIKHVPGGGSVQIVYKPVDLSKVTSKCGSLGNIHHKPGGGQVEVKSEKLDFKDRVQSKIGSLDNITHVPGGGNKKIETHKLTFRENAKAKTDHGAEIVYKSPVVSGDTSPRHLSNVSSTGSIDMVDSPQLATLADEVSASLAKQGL
Experiment: qHTS for Inhibitors of Tau Fibril Formation, Fluorescence Polarization; also: nearly all actives have a fitted effect of over 55% in size
Details: K18 P301L tau heparin fibrillization, Alexa594 FP, 6 h; series mostly up to 57.7 µM
In short: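 Human tau K18 […] P301L fragment, 15 uM unlabeled plus 0.24 uM Alexa 594-labeled tau (final), with compound and 20 uM heparin in 100 mM sodium acetate pH 7; 6 hr at 37 C, then Alexa 594 FP read.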
% is scaled to controls: 0 for no effect and ±100 for the full control effect; potency is read from the fitted curve at half-maximal effect; tags tell the direction and shape of the fitted curve.

Potency, inactive:
O=C(Nc1nnc(S(=O)(=O)N2CCCCC2)s1)c1ccccc1Br, Cc1ccc(OCC(=O)Nc2ccccc2OCc2cc(=O)n3ccccc3n2)cc1C, COc1cccc(-n2c(SC3CCOC3=O)nc3ccccc3c2=O)c1 (stereo unspecified), O=C(NNC(=S)NCC1CCCO1)c1cccc(S(=O)(=O)N2CCOCC2)c1 (stereo unspecified), COc1ccc(N2CC(NC(=O)c3ccc(S(=O)(=O)N4CCCCC4)cc3)CC2=O)cc1 (stereo unspecified), CCN1CCN(c2csc3ccc(F)cc3c2=O)CC1, COC(=O)c1ccccc1NC(=O)CN1CCC(n2nnc3cc(C)ccc32)CC1, Nc1ccc(C2=Nc3cccc4cccc(c34)N2)cc1, COc1cccc2cc(C(C)=O)oc12, COc1ccc(NC(=O)CN(C)S(=O)(=O)c2cccs2)cc1, COc1cccc(-n2ccnc2SCC(=O)Nc2cc(OC)ccc2OC)c1, CCS(=O)(=O)N1CCc2cc(C(=O)NCc3ccc(Cl)cc3)ccc21, Cn1c(SCC(=O)O)nnc1-c1ccc(NC(=O)c2ccc(Cl)c(Cl)c2)cc1, O=C(Oc1cc(Cl)ccc1Cl)c1ccc(N2CCOCC2)c([N+](=O)[O-])c1, COc1cccc(CNC(=O)CSc2nc(=O)[nH]c3c2CCC3)c1, CCC1CCCCN1C(=O)COC(=O)c1cc(Br)ccc1Cl (stereo unspecified), CCOc1ccc(-c2[nH]ncc2-c2csc(C)n2)c(O)c1, Cc1nn(-c2ccccc2)c2c1N(CC(=O)NCc1ccc(N(C)C)cc1)C(=O)CS2

Potency, inconclusive:
Cc1ccc(-c2cc(-c3ccccc3)c(C#N)c(SCC(O)CS(=O)(=O)Cc3ccccc3)n2)cc1 (stereo unspecified) 22.4 µM [inhibitor, partial curve], Oc1ccccc1-c1nc(NCc2cccnc2)c2ccccc2n1 6.31 µM [inhibitor, partial curve, poor fit], Cc1ccc(C(=O)c2oc3ccccc3c2NC(=O)c2cc(-c3ccccc3O)n[nH]2)cc1 28.2 µM [inhibitor, partial curve], N[C@@H](C(=O)N[C@@H]1C(=O)N2C(C(=O)O)=C(Cl)CS[C@H]12)c1ccccc1 31.6 µM [inhibitor, partial curve] and 39.8 µM [inhibitor, single point], COc1ccc(-c2nc3ccccc3s2)cc1NC(=O)c1ccc(F)cc1 22.4 µM [inhibitor, partial curve, poor fit], CCN1C(=O)CS/C1=N\c1nccs1 3.16 µM [inhibitor, single point], O=c1nc2c(O)cccn2c2c1c(=O)[nH]c1ccccc12 8.91 µM [inhibitor, full curve, poor fit], Cn1c(-c2sc(=S)n(-c3ccccc3)c2N)nc2ccccc21 1.78 µM [activator, single point], COc1ccc(-c2nc(C#N)c(N3CCCCCC3)o2)cc1OC 10 µM [activator, partial curve], CC1(C)CCc2cc(-c3ccn(S(=O)(=O)c4ccccc4Cl)n3)ccc2O1 20 µM [inhibitor, single point], CN(C)CC(=O)Nc1nc(-c2ccccc2)cs1 44.7 µM [inhibitor, single point], COc1ccc(C(=O)Nc2cc(C(=O)c3ccccc3)c(C)oc2=O)cc1 44.7 µM [inhibitor, single point], CC(=O)c1cccc(NC(=O)CSc2nc3ccccc3nc2Cc2ccc(F)cc2)c1 10 µM [inhibitor, partial curve], CC(=O)Nc1ccccc1-c1nc2ccccc2n(CC(=O)Nc2cccc(C(F)(F)F)c2)c1=O 3.55 µM [inhibitor, single point], COc1ccc(/C=C/C(=O)Nc2nc(-c3cccs3)ns2)cc1OC 5.01 µM [inhibitor, full curve], CCCOc1cccc(C(=O)Nc2cc(-c3ccccc3)no2)c1 14.1 µM [inhibitor, partial curve], Cc1cc(-c2sccc2Br)nc(-n2cccc2)n1 31.6 µM [inhibitor, partial curve], COc1cccc(-c2nc(SCC(=O)NC3CCCC3)c(-c3ccc(C)cc3)[nH]2)c1 0.126 µM [activator, single point], CC(=O)Nc1cccc(N2C(=O)CC(N3CCC(C(=O)N4CCCCC4)CC3)C2=O)c1 (stereo unspecified) 7.08 µM [inhibitor, single point], COc1ccc(OC)c(S(=O)(=O)Nc2cccc(-c3ccc(N4CCCCC4)nn3)c2)c1 25.1 µM [inhibitor, partial curve], CCOc1ccc(NS(=O)(=O)c2ccc3c4c(cccc24)C(=O)N3)cc1 2.82 µM [inhibitor, partial curve, poor fit], Cc1ccc(OCC(=O)N/N=C/c2cn(C)c3ccccc23)cc1 14.1 µM [activator, partial curve], CCOC(=O)C(NC(=O)CC)(N1CCc2ccccc2C1)C(F)(F)F (stereo unspecified) 39.8 µM [inhibitor, partial curve], Cn1c(=O)c2c(nc(NN=C3CCCC3)n2C)n(C)c1=O 35.5 µM [inhibitor, partial curve], O=C(Nc1nc(-c2cccs2)c(-c2ccccc2)s1)c1ccco1 10 µM [inhibitor, partial curve], N#Cc1ccccc1-c1ccc2ncnc(N3CCNCC3)c2c1 22.4 µM [inhibitor, single point], C=CC[C@H](N)C(=O)O 3.55 µM [inhibitor, partial curve], CCOc1ccc(-n2c(SCC(N)=O)nc3sc4c(c3c2=O)CCN(C)C4)cc1 39.8 µM [inhibitor, single point], COc1cc(NC(=O)c2cc(Cl)ccc2Cl)ccc1NC(=O)c1cc2ccccc2o1 17.8 µM [inhibitor, partial curve], Cc1[nH]nc(-c2ccc(OCc3cnn(-c4ccccc4)c3)cc2O)c1Oc1ccccc1F 15.8 µM [inhibitor, partial curve], COc1ccc(-n2nnnc2-c2cccc(OC)c2)cc1 2.82 µM [inhibitor, partial curve, poor fit], CC(C)OC(=O)[C@@H]1CC[C@H](C)[C@@H](CCC[C@@H]2C[C@@H](O)C[C@H](CC#N)O2)O1 3.98 µM [inhibitor, single point], O=C(Cc1cccs1)Nc1nc(-c2ccc(F)cc2F)cs1 35.5 µM [inhibitor, partial curve], O=C(COc1ccccc1Cl)NNC(=O)C1CCCO1 (stereo unspecified) 11.2 µM [inhibitor, partial curve], O=C(N/N=C/C=C\c1ccccc1[N+](=O)[O-])c1cc(-c2ccccc2)nc2ccccc12 11.2 µM [activator, partial curve], O=[N+]([O-])c1ccc2c(c1N1CCCCC1)=NC1(CCCCC1)[N+]=2[O-] 17.8 µM [inhibitor, partial curve], N#CC1=C(N)SC(N)=C(C#N)C1c1ccnc2ccccc12 14.1 µM [inhibitor, partial curve], CCC(C)(C)C(=O)Nc1ncc(S(=O)(=O)c2ccc([N+](=O)[O-])cc2)s1 17.8 µM [activator, single point], Cc1ccccc1OCc1nc2ccccc2c(=O)n1/N=C/c1c[nH]c2ccccc12 0.891 µM [inhibitor, full curve, poor fit], Clc1ccc(-n2ncc3c(NCc4ccccn4)ncnc32)cc1 17.8 µM [inhibitor, partial curve], Cc1c(NC(=O)Cc2ccc(F)cc2)cccc1-c1nc2cccnc2s1 17.8 µM [inhibitor, partial curve], Cc1cccc(NC(=O)CSc2nc3ccc(NC(=O)COc4ccc(Cl)cc4)cc3s2)c1 11.2 µM [inhibitor, partial curve], CCOC(=O)c1cc(-c2ccccc2)n(CCC(=O)Nc2ccc(C(F)(F)F)cc2)c1C 8.91 µM [inhibitor, partial curve], CC(C)OC(=O)c1cc(NC(=S)Nc2ccc([N+](=O)[O-])cc2)cc(C(=O)OC(C)C)c1 39.8 µM [inhibitor, single point], [O-]/[N+](=C\c1ccc(F)cc1)c1ccccc1 44.7 µM [inhibitor, single point]

Potency, active:
O=C(Nc1cccc(F)c1)c1ccc2c(c1)N(Cc1ccccc1)C(=O)c1ccccc1S2(=O)=O 14.1 µM, Cc1ccc(CNC(=O)c2ccc3nc(SCc4ccc(F)cc4)[nH]c3c2)cc1 22.4 µM

activity, negative = inhibition, inactive:
C/C(CCC(=O)OC[C@@H]1O[C@H](C#Cc2ccccc2)C=C[C@@H]1Oc1ccc(C)cc1)=N/OC[C@@H](O)[C@H]1O[C@H]2OC(C)(C)O[C@H]2[C@@H]1O -1.18% [at 11.6 µM]
